Reference: publication PMC12113829 (Microorganisms, 2025)

Target: T1, HLPPM19 (Trx-HLPPM19-ΔTM-His-Strep) (Candidatus Phytoplasma mali, UniProt A0A6B9D751)
T1 construct: N-terminally truncated, transmembrane region deleted; N-terminal Trx, C-terminal 6xHis and Strep tags kept; E. coli BL21(DE3); fusion 57 kDa
Type: biochemical
Conditions: binding: labelled compound 0.1 µM, protein 10 µM, 10 mM MgCl2, 1 mM ATP, pH 8.0, on ice; hydrolysis: Mg acetate, pH 7.5, rt

For `Nc1nc2c(ncn2[C@@H]2O[C@H](COP(=O)(O)OP(=O)(O)OP(=O)(O)O)[C@@H](O)[C@H]2O)c(=O)[nH]1` [GTP], the “nitrocellulose spot binding of [α32P]GTP, phosphor imager; also TLC phosphate re” value was “Trx-HLPPM19-ΔTM-His-Strep not only binds GTP but also hydrolyzes GTP, releasing monophosphate”.
